Results reported in PubChem BioAssay AID493208 (National Center for Advancing Translational Sciences (NCATS), 2011).
Hit rate of the full screen: of about 44,000 compounds, about 340 (0.77%) were called active. Another 5% or so got no clear call; they are omitted. Calls follow the shape of the dose curve; as a rule, active = well fitted inhibition curve with a large enough effect; inconclusive = small, poorly fitted or top-dose-only effect; inactive = flat fitted curve, though single readings scatter. The list shows a part of the results.

assay: Acumen qHTS Assay for Inhibitors of the mTORC1 Signaling Pathway in MEF (Tsc2-/-, p53-/-) Cells: Sytravon; settings: phospho-rpS6 immunofluorescence/PI, 24 h; series mostly up to 38.3 µM; activity change, negative = inhibition: at the top concentration; also: nearly all actives have a fitted effect of over 50% in size
In short: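 Readout is phospho-S6 Alexa 488 signal normalized to PI per well, reported as % active cells with thresholds set from rapamycin (7.5 nM) and DMSO controls. Cells: Tsc2-/-, p53-/- MEFs, 24 hrs compound at 37 C; PI cell number serves as viability.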

Activity change, negative = inhibition, inactive:
COc1ccc2c(c1)CCc1c(C(=O)Nc3c(C)nn(Cc4ccc(Cl)cc4)c3C)noc1-2 -1.65%
COc1ccc(/C=C\c2onc(C)c2S(=O)(=O)N2CCC(C(=O)Nc3cccc(C)c3C)CC2)cc1 3.23%
CCOc1ccc(NC(=O)Cn2nnc(C(=O)NCc3cccs3)c2N)cc1 -2.2%
Cc1cccc(C)c1NC(=O)CCS(=O)(=O)c1ccc2c(c1)CC(C)N2C(=O)C1CC1 (stereo not drawn) -7.02%
Cc1ccc(-c2nc3ccccc3s2)cc1NC(=O)COc1ccccc1 -4.82%
CCOc1ccc(/C=C/c2nc(C#N)c(N3CCCCC3)o2)cc1 -4.61%
CCOC(=O)c1cccc(NC(=O)CCc2c(C)nn(-c3ccc(N4CCCC4)nn3)c2C)c1 -6.17%
Cc1ccc(OCC(=O)NCC2(N3CCOCC3)CCCCC2)cc1C -9.46%
CCCCN(CCCC)CCNC(=O)c1cn(CC)c2ccc(S(=O)(=O)N3CCc4ccccc4C3)cc2c1=O -9.04%
CCCN(CCC)CCNC(=O)CN1C(=O)COc2ccc(S(=O)(=O)N3CCC(C)CC3)cc21 11.5%
CCOC(=O)Cn1nc(-c2ccccc2)c2cnc3ccc(OCC)cc3c21 -3.41%
Cc1oc(-c2cccc(Cl)c2)nc1CN1CCC(C(=O)NCCCN2CCN(c3ccccc3F)CC2)CC1 -17%
CCOC(=O)CSc1nc2c([nH]c3ccccc32)c(=O)n1-c1ccc(OC)cc1 2.48%
O=C(CN(CCc1ccccc1)S(=O)(=O)c1ccc(Br)cc1)NCc1ccc(Cl)cc1 3.49%
CCC1CN(C(=O)C2CCN(S(=O)(=O)c3c(C)noc3/C=C/c3ccccc3F)CC2)c2cc(Cl)ccc2O1 (stereo not drawn) 5.82%
COc1ccc(N(Cc2cccs2)C(=O)c2ccc(Br)o2)cc1 -15.3%
CCc1ccc(NC(=O)CSC2=Nc3ccccc3C3=NC(CC(=O)NC4CCCCC4)C(=O)N23)cc1 (stereo not drawn) -0.216%
COc1ccc(NC(=O)C2CCCN(S(=O)(=O)c3ccc4c(c3)CCCC(=O)N4)C2)cc1OC (stereo not drawn) -1.55%
Cc1ccc2c(=O)cc(C(=O)Nc3ccc(S(=O)(=O)Nc4nc(C)cc(C)n4)cc3)oc2c1 0%
O=C(C1CCN(c2ncnc3c2nc2n3CCCCC2)CC1)N1CCN(c2ccc(F)cc2)CC1 -0.447%
CCOc1cc(C2C(C(=O)Nc3ccc(OC)cc3)=C(C)Nc3nc(SC)nn32)ccc1O (stereo not drawn) 1.6%
CCCC(=O)N1CC(=O)Nc2ccc(Cl)cc2C1c1ccccc1 (stereo not drawn) -1.34%
CCC(Sc1ncnc2sc3c(c12)CCCC3)C(=O)OC(C)C (stereo not drawn) -24.1%
CCc1ccc(NC(=O)Cn2c(=O)n(Cc3nc(-c4ccccc4)no3)c(=O)c3cc4c(cc32)OCO4)cc1 -10.5%
COc1ccc(S(=O)(=O)N2CCC(c3ccncc3)CC2)cc1OC -0.26%
O=C(c1ccco1)n1nc(-c2ccc(Cl)cc2)nc1NCc1ccccc1 -28.4%
Cc1ccc(N2C(=O)NC(NS(=O)(=O)c3ccc(Cl)cc3)(C(F)(F)F)C2=O)cc1C (stereo not drawn) -2.47%
COc1ccc(S(=O)(=O)NCC(c2ccc(N(C)C)cc2)N2CCc3ccccc32)cc1 (stereo not drawn) 0%
Cc1cccc(C(=O)Nc2ccc(C(=O)OCc3cc(=O)n4nc(C5CC5)sc4n3)cc2)c1 9.09%
COc1ccccc1N1CCN(C(=O)CCc2nnc3n(C)c(=O)c4sccc4n23)CC1 8.86%
COCCNC(=O)CSc1cn(CC(=O)N2CCCCCC2)c2ccccc12 -6.22%
Cc1ccc(NC(=O)C2CCCN2S(=O)(=O)c2ccc3nc(-c4ccccc4)[nH]c3c2)cc1F (stereo not drawn) -4.36%
CCOc1ccc(OCC)c(NC(=O)C2CCN(S(=O)(=O)c3cn(C)cn3)CC2)c1 1.38%
CSc1ccc(CCNC(=O)Cn2ncc3c(=O)oc4ccccc4c32)cc1 -10.6%
Cc1ccn2c(Nc3ccc(F)cc3)c(-c3ccccn3)nc2c1 0.0896%
O=C(Cn1nc(-c2ccccc2)nc(Cc2ccccc2)c1=O)Nc1ccccc1 -5.92%
CCCCC(=O)OC1=C(C(C)=O)N(Cc2ccccc2)S(=O)(=O)c2ccccc21 1.11%
O=C(NCCc1nc2ccccc2n1Cc1ccccc1)c1ccco1 -2.74%
Cc1ccc(NS(=O)(=O)c2cnc(N)nc2)c(C)c1 0.209%
CCN(CC)CCNC(=O)C1CCN(c2cc(C)nc3c(-c4ccc(Cl)cc4)c(C)nn23)CC1 -4.79%
Cc1nc(-n2nc(C)c(Cc3ccc4c(c3)OCO4)c2C)sc1C(=O)Nc1cccc(Cl)c1 -16.8%
CCc1nn(CC(=O)Nc2cc(C)cc(C)c2)c(=O)c2cc3sccc3n12 -6.66%
Cc1ccc(CN2CCCn3nc(C(=O)NCc4ccc(OC(C)C)cc4)cc3C2=O)cc1 15.6%
CCOc1ccccc1NC(=O)N1CCN(C)c2ncccc21 -17%
Cc1ccc(NC(=O)CSc2n[nH]c(-c3ccc(F)cc3)n2)cc1F 2.03%
CSc1cccc(NC(=O)CC(c2cccs2)N2Cc3ccccc3C2=O)c1 (stereo not drawn) -9.02%
COc1cc(-c2noc(CN3CCN(c4cccc(Cl)c4)CC3)n2)cc(OC)c1OC -0.683%
CSc1ccc(CCNC(=O)CCc2c(C)nc3c(c(C)nn3-c3ccc(C)c(C)c3)c2C)cc1 0.24%
CCOC(=O)c1cccc(NC(=O)c2ccc3nc(C(C)C)oc3c2)c1 -2.33%
O=C(Nc1cccc(Cl)c1Cl)c1cc2nc(-c3ccc(Cl)cc3)cc(C(F)(F)F)n2n1 -7.56%
CCC(C(=O)Nc1nnc2n1CCS2)c1ccccc1 (stereo not drawn) -4.95%
Cc1ccc(CN2C(=O)CN(C3CCC(C)CC3)C(=O)C2c2ccc(F)cc2)cc1 (stereo not drawn) -15.6%
COc1ccc(Cn2c(=O)n(-c3ccccc3C)c(=O)c3c4c(sc32)CN(C(C)=O)CC4)cc1 -11.7%
CCCN(CCC)CCNC(=O)c1cc2c(-c3ccc(Cl)cc3)nn(C)c2s1 -12.9%
COc1ccc(NC(=O)N2CCc3c(sc4c3CCCC4)C2c2ccccc2OC)cc1 (stereo not drawn) -17%
CC(C)CC(=O)Nc1ccc2nc(SCC(=O)N3CCCC3)sc2c1 -4.62%
CCOC(=O)c1c(C)sc(-c2c(-c3cc(C)ccc3C)[nH]c3c2c(=O)n(C)c(=O)n3C)c1O 0.168%
Cc1ccc(NC(=O)CCn2nc(C)c(S(=O)(=O)N3CCCCC3)c2C)cc1Cl -11.3%
CCOc1ccc(N(CC(=O)Nc2cc(C)ccc2C)S(=O)(=O)c2c(C)[nH]c(=O)[nH]c2=O)cc1 -6.74%
CCN(c1ccc(C)cc1)S(=O)(=O)c1nnc(NC(=O)C2CCCCC2)s1 -1.93%
CCCNC(=O)CSc1nc2ccccc2nc1Cc1ccc(Cl)cc1 -0.178%
Cc1ccc(C)c(CN2C(=O)c3ccccc3S(=O)(=O)c3ccc(C(=O)N4CCc5ccccc54)cc32)c1 0.711%
Cc1ccc(OCC(=O)NCC(c2ccc(Cl)cc2)N2CCCCC2)cc1 (stereo not drawn) -7.82%
COc1ccc(-n2c(C)c(C(C)=O)c3cc(OC(=O)c4ccc(C)cc4)ccc32)cc1 20.8%
CCOC(=O)c1ccc(OCC2c3cc(OC)c(OC)cc3CCN2C(=O)c2ccc(S(=O)(=O)N3CCCC3)cc2)cc1 (stereo not drawn) 3.61%
CCn1c(CNC(=O)c2ccc(OC)cc2)nnc1SCC(=O)Nc1ccccc1 -14.7%
COC(=O)c1ccc(NC(=O)CCc2c(C)nc3c(-c4ccccc4)c(C)nn3c2C)cc1 -0.479%
Cc1ccc(CCNC(=O)c2cn(C)c3ccc(S(=O)(=O)N(C)C4CCCCC4)cc3c2=O)cc1 0.767%
CCOC(=O)Cn1c(=O)n(CC2CCCO2)c2nc(-c3ccccc3F)nc(C(N)=O)c21 (stereo not drawn) 1.05%
Cc1cccc(NC(=O)c2cc(S(=O)(=O)NCc3ccc4c(c3)OCO4)ccc2F)c1C 2.2%
Cc1ccc(Cn2cc(C(=O)c3ccc(F)cc3)c(=O)c3cc4c(cc32)OCO4)cc1 3.24%
COc1ccc(CNS(=O)(=O)c2cc3c(cc2C)N(C)CCO3)cc1 -20.8%
COc1ccccc1-n1c(=O)c2c3c(sc2n(C)c1=O)CN(C(C)=O)CC3 2.35%
CCOC(=O)Cc1ccc(NC(=O)Nc2ccccc2OCc2cc(=O)n3ccccc3n2)cc1 -3.22%
O=C(NCc1ccc2c(c1)CCN2C(=O)c1ccccc1)Nc1cc(F)ccc1F -18.7%
COc1ccc(Cn2c(CNS(=O)(=O)c3ccc(C)c(C)c3)nc3cccnc32)cc1 -8.47%
CCn1nnc2cc(C(=O)Nc3cccc(Cl)c3C)ccc21 -4.73%
COc1ccc(-c2nc3scc(CCNS(=O)(=O)c4ccccc4F)n3n2)cc1 -0.172%
COc1ccc(-c2noc(-c3ccc(N4CCCC4)c([N+](=O)[O-])c3)n2)cc1 -0.155%
COc1ccc(C)cc1S(=O)(=O)NCC(c1cccs1)S(=O)(=O)c1ccc(C)cc1 (stereo not drawn) -6.57%
CCN1CCN(c2ncnc3c2cnn3-c2ccc(C)c(Cl)c2)CC1 0%
O=C(NC1CCCCCC1)C1CCN(C(=O)N2CCOc3ccc(Cl)cc32)CC1 -9.12%
CCCCc1nn2c(=O)cc(COC(=O)c3cccc(NC(=O)COc4ccccc4)c3)nc2s1 0%
Cc1ccc(C2=NN(CC(=O)NCCCN(CC(C)C)CC(C)C)C(=O)CC2)cc1 11.2%
Cc1cc(C)n(-c2nc3ccccc3nc2Nc2ccc(C(C)C)cc2)n1 1.04%
Cc1cc2[nH]c(=O)c(=O)[nH]c2cc1S(=O)(=O)NCc1ccc(F)cc1 0.7%
CCOCCCNC(=O)c1ccc2c(c1)NC(=O)C(CS(=O)(=O)Cc1ccc(F)cc1Cl)N2 (stereo not drawn) 0.67%
CCN(CCCNC(=O)CSc1cc(=O)n(C)c2ccccc12)c1ccccc1 -0.148%
O=C(Nc1ccc(Cl)cc1Cl)c1cc(S(=O)(=O)N2CCC3(CC2)OCCO3)ccc1F 8.57%
Cc1cc(C)c(NC(=O)C(C)n2c(=O)cc(C)c3c(C)nn(-c4ccccc4)c32)c(C)c1 (stereo not drawn) -6.02%
CC(=O)N1CCc2c(sc3c2c(=O)n(-c2ccccc2)c(=O)n3CC(=O)c2ccc(Cl)cc2)C1 1.3%
O=C(NCc1cccc(F)c1)C1CCN(c2nc3ccccc3nc2C(F)(F)F)CC1 -6.9%
COCCNC(=O)CCn1c(=O)c2cc(OC)c(OC)cc2n(CC(=O)Nc2ccc(F)c(Cl)c2)c1=O 7.77%
